Assay results as given in the supplement of paper PMC12632987.
Over roughly 4,500 sequences, “median log2 fold change of GCK-ALFA target abundance (FLAG IP / Myc IP barcode read proportion)” has its median near 0.078; the lowest 2% begin near -0.6. This is one part of the list.

B1: GBRAP_57_6463 (protein)
chain: MSPLEKALKYFEEAIALVEAGAPLEEVLEKVEKGLELLDRTTLLDILLLLDPSTRSDLSKEELRRRILELVRRALEEEGREAALERLRLMAGQVEMDLLD
B2: GBRAP_52_6068 (protein)
chain: SEAKLDALAQAIAAAIAAGDLEKAKALIKEAIKTLSVEEIKAMLVRAAELVAALGEEAEERFVDLLDEAEDMMLEAGISEEDALLIVGDAEAALARAVAA
B3: GBRAP_14_3774 (protein)
chain: MEEAIKILKETAKEIVALLAEINPALAAEFAAAVDEVVKETIERIKETGDALKAAEEGRERLVARVREILADEPAEVRARAVAVVEVEFGQAILELDELE
B4: GBRAP_139_3690 (protein)
chain: SALAEKLAEAAALARRAAAEGEEALRALARFLASLSPEERERAAAAIGEVALALPFDEAEAFYDALIRIAREELGDEDLAEILEAERNRTLAQIAVREEA
B5: GBRAP_52_6225 (protein)
chain: MAAEARALAQEILRTVRERGVEAAVALLKRIAREHSPELVAAVLAELVRLLEGESAETAEAVLDALIAAEDGLIAAGVDELTVEDAIAAAAAVAVALLKK
B6: GBRAP_80_6814 (protein)
chain: MEEEIEKNLKEIEEIDPELAEKVREIVELARELGVPLRYIARFVKAVLELAKLDLEKARELVDRLLERIREAYAAGDREAALAEIVDAESEALLEVEELE
B7: GBRAP_52_6344 (protein)
chain: SEEEVRAVAEEIAAAVVAGDLEKAVALTREAAKTFTEEEVARMMRLTAERLVAALPDREDLVWEAAFKLAEVIEEELGNEELADEFLAYLARLLVARRQA
B8: GBRAP_128_3430 (protein)
chain: SEEEKVAEAKALIDKALTATVEEVYELTKEFMKVFGTLSKEAQEEVADYFISKLPQLTKEQLLAVADALREQLPTLDPYAQELAADVLVEALNEAEELEE
B9: GBRAP_160_4650 (protein)
chain: EERKEKLKERIKELIEEAYEMMKGETHEERIAIARVMGGDIILELDEDEGVSDEAIEEVDKIMDEFVATLEANPDLTDEEIRALLEEMLKKIFEIIDKYT
B10: GBRAP_80_6832 (protein)
chain: MEERLEENIKKIEEIDPEIAKLVREIVELARAMGVPLERLARMTEAILELAKLDKEKARKLVEETLKEVREEAAKGDAAAVAATLAEAESDALLEAEELE
B11: GBRAP_150_3940 (protein)
chain: DLEELEALFIGIETDAELALDTSNDTLKYVKRALELAKEGIEEADEELKKIAEEIAKKAEEAIKAIEEGAPQEEIDKLLKEIAKLADKGADLVEKKIEEE
B12: GBRAP_52_6267 (protein)
chain: MEERAERLAEEFLEVVLTKDEEEVRAFARELVETESEELIAKMLEIVVKKAETLDAESLERLLEAFLILEEELEEAGKDPLPATDAAARLATLLQAKLAA
B13: GBRAP_11_2931 (protein)
chain: KKEELEKAAKLAEEIAKQLQKLIESGVVKEEDLKEIKKKLEELKKLVEKYGDEYEKKVAEEAAKALEKAEADPSKALEYLKDAYGYVVELEGLLLLRIEE
B14: GBRAP_125_2975 (protein)
chain: SEEEILEDLALVAKRLGLSDDDVEEAVRLAREFSVKGTLYAIMKALGYEEVAELVEKITEEEAKEVLREAAKEIRANPEITPEEAIELIKELLEKAIAKK
B15: GBRAP_128_3382 (protein)
chain: VDEEKLKEVEELVEKMIKASVEEVKELTKEFIEFLKTLSKEEQEKAVEILKKKLPELSKEKLDVVADVIREEMPSLDPYLQNLLADLEVEALNLSVEKEE
B16: GBRAP_125_3012 (protein)
chain: ALEAAVEALEALGARLGLSPDEVAELGEQARAHGVRQALIALFLAEGWEEAAELAAQLSEEEAAAALAELVARLEAHPDLTPEEVKELALEILERHVAAS
B17: GBRAP_137_3680 (protein)
chain: MKVTIEIEREGDVVRITITIEDEETAEETAEKIEDVAVEVGALAISVEKNEDGTWVVEIDVPIEKEEELLEKILEILEDADEVTIIRKEDGKETVEVIKN
B18: GBRAP_11_2934 (protein)
chain: KKEKLKKLLKLAKEAAKLLQEILKLGKLDKKLAEKALKLTEEAAKLAKELGLEEILSLLEIAAEILKEILKLGKLDKTKAAAALALAIDVAHEVEELIEK
B19: GBRAP_78_6718 (protein)
chain: ELEEVLEKAIEVLNEAAKEALKLPEEKSNEVLDLLVEATNLLMEILEPGVKKEEAIKLLEEAIKLLEEAEKLLGDEDPELRKLVKEAKKLAEEALKIAKE
B20: GBRAP_160_4643 (protein)
chain: SESVEDMHEIIEEYSEFALEAIEEGDMENALAAMRMMVGDLVLEADEDPRFSDEDVDELDELGDKFVEELEKNKDKSPEYLKELVEKAKEELKKLVEEHA
B21: GBRAP_137_3657 (protein)
chain: MKIKINVKLDGDFAEVTIEADTEELAELAMDIAYEVAKETGVAYAISLDKENKTVTVDLLGTPEKLKAFIEKLVERLSKEADVELTLEENGKVTKKKIKK
B22: GBRAP_128_3438 (protein)
chain: SQEELLKKALELLDEIVESDVETAAELAKKLAELIGKLNEEAREKVVEYFEEKAKELTEEKLIAVSDALREMVPKLDPLAANALNEMMVILGERILELEE
B23: GBRAP_14_3793 (protein)
chain: MEEIKELLEETIEEIMELIEDLPEEKLEKLRKALKEIAEETLKEIKETGNLEEAMDKMIERSVAATEEILADLPEETRANAVAIVRTELLNTEEEIDEKY
B24: GBRAP_160_4276 (protein)
chain: SEELEELIEELKESKEEILELVDEESPEEVRVFAVTDLGSILLEAIELGLVSEEEEEKMAEIIDELEEELEENKDASKEEIKKIITEHYDKFIEILEKSK
B25: GBRAP_84_6998 (protein)
chain: SNSERAFRLAKEIFDRVKGRTATLVLAVVLLKLSGKTRTRIVEYAIERDPEAAYDALSLAYEVAANDEEEKLEKEAKAEVAKESPEIVAKYNELLELIKK
B26: GBRAP_150_3933 (protein)
chain: DLEELLLLADSVADLLELALNEGIDREKAIKRAQELLEELAKEADPELKKIAEEAQKLLEEAQKLIKEGGPEEEIEKLLKKAQELAEKLAELLEKKIEEE
B27: GBRAP_11_2918 (protein)
chain: KKEELKKIAELLEKLIETLKKLKKEGVDDEELLKKALELAKKALELIKKNLDESSKELAKEAVELLKKAKEDKENAEKYVEEALATAQVLLGQVLLEIEE
B28: GBRAP_128_3416 (protein)
chain: ADAALVAKAKELLEKMKTADAATAAALADEIAALIAAADLETAEAIAEVIEEELPKLTAEQLDILADALRAALPAASPEKAEILAGVLVDALNEAEEKEE
B29: GBRAP_128_3256 (protein)
chain: MNEEVVKYAEETVEKIKNSDKETAQKLADEFMEWLKESSLEDAEQAIEVVKSRLHELSAEKLDILADAARKHRDKFTPEKAELVADLEVEALNEAEEKEE

Molecular target: GABARAP, O95166
Test: median log2 fold change of GCK-ALFA target abundance (FLAG IP / Myc IP barcode read proportion) (log2 ratio); each designed protein is fused to an ALFA-tag nanobody in HEK293 cells to bring the named protein to FLAG-tagged glucokinase (GCK); Myc marks an untargeted standard; higher = target protein stabilised (more abundant)
Settings: target protein: 3xFLAG-MCP-GCK-ALFA reporter; HEK293 landing pad (RPLP)
In short: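 Sequencing of reverse-transcribed, amplified circular RNA barcodes from anti-FLAG and anti-Myc immunoprecipitates provided the readout for an ALFA-nanobody-fused binder library recombined into HEK293 landing-pad cells. Those cells were induced with 2 μg mL^−1 doxycycline, transfected with a plasmid expressing a FLAG-tagged target and a Myc-tagged standard, and lysed after 48 h. Target abundance is the per-binder median log2 ratio of FLAG to Myc barcode read proportions. Only barcodes at a proportion of ≥10^−7 in both replicates and binders with ≥3 barcodes per replicate were kept, with a 10^−6 pseudocount added before the two replicates were pooled.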

Chain of GABARAP, O95166 (O95166 whole entry, the tested form may be a part): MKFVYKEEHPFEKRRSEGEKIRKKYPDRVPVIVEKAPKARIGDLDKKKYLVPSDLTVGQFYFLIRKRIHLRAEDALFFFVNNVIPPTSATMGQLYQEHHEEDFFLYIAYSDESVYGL

Binder | median log2 fold change
B1 | 0.173
B2 | -0.282
B3 | 0.141
B4 | 0.342
B5 | -0.0741
B6 | -0.0864
B7 | 0.0417
B8 | -0.0292
B9 | -0.715
B10 | 0.354
B11 | 0.0894
B12 | 0.115
B13 | 0.323
B14 | -0.235
B15 | 0.251
B16 | 0.17
B17 | -0.123
B18 | 0.203
B19 | 0.294
B20 | -0.284
B21 | 0.428
B22 | 0.265
B23 | -0.103
B24 | -0.247
B25 | -0.136
B26 | 0.0952
B27 | 0.213
B28 | 0.247
B29 | 0.367
